In all, about 94,000 compounds went through this assay and about 2,100 (2.2%) were called active. Inconclusive results, whose numbers are uncertain, are shown with a selection of clear calls. Rule as the data show it: active = activity change below about -80%; inconclusive = no clear call, values can overlap the other calls; inactive = above that.
Assay: P. falciparum Dd2 growth inhibitors, primary screen, SYBR Green fluorescence, single dose replicates (AID 1159554)
Settings: 72 h, at 10 µM, active compounds read low

Row | SMILES | activity change
1 | COc1ccc2c3c(n(C)c2c1)[C@@H](CO)N(C(=O)Nc1ccc(F)cc1)CC31CCN(S(=O)(=O)c2cccc(F)c2)CC1 | inconclusive: -81.7%
2 | COc1ccccc1NC(=O)N[C@H]1CC[C@H](CCn2cc(-c3ccccc3OC)nn2)O[C@@H]1CO | inactive: 26.7%
3 | C[C@H](CO)N1C[C@H](C)[C@H](CN(C)C)Oc2ncc(Br)cc2C1=O | inconclusive: -80.5%
4 | COc1ccc2c3c([nH]c2c1)[C@H](CO)N(Cc1cc(F)ccc1F)CC31CN(C(=O)CN(C)C)C1 | inconclusive: -80.6%
5 | COc1ccc2c3c(n(C)c2c1)[C@H](CO)NCC31CCN(C(=O)Nc2ccc3c(c2)OCO3)CC1 | inconclusive: -80.4%
6 | Cc1ccc(S(=O)(=O)N(C)C[C@@H]2Oc3ccc(NC(=O)CCCCCC(=O)Nc4ccccc4N)cc3C(=O)N([C@@H](C)CO)C[C@@H]2C)cc1 | active: -89.1%
7 | C[C@H]1CN([C@@H](C)CO)C(=O)c2cc(C#Cc3cccc(F)c3)cnc2O[C@@H]1CN(C)C(=O)c1ccccc1F | inconclusive: -81.1%
8 | CN(C)CCCNC(=O)C[C@H]1CC[C@@H]2[C@H](COC[C@H](O)CN2Cc2cccc(F)c2)O1 | inactive: 14.9%
9 | CCC(=O)Nc1ccc2c(c1)C(=O)N(C)C[C@@H](OC)[C@H](C)CN(C(=O)Cc1ccccn1)[C@H](C)CO2 | inactive: -37.2%
10 | COc1ccccc1-c1ccc([C@H]2[C@@H](C#N)N(C(=O)C3CC3)[C@@H]2CO)cc1 | inactive: 9.18%
11 | COc1ccc(C#Cc2ccc([C@H]3[C@H]4CN(C(=O)c5ccc(F)cc5)CC(=O)N4[C@H]3CO)cc2)cc1 | active: -85.1%
12 | CCCC(=O)N1CCC2(CC1)CN(S(=O)(=O)c1ccc(C)cc1)[C@H](CO)c1[nH]c3cc(OC)ccc3c12 | inconclusive: -82.2%
13 | Cc1noc(C)c1NC(=O)N[C@H]1CC[C@H](CCNC(=O)C2CCCCC2)O[C@@H]1CO | inactive: 1.96%
14 | COc1ccc(S(=O)(=O)N2CC[C@@H]3[C@H]2c2cc(-c4ccc(C#N)cc4)ccc2N[C@@H]3CO)cc1 | active: -90.9%
15 | C[C@@H]1CN([C@H](C)CO)C(=O)c2cc(NS(=O)(=O)c3ccc(Cl)cc3)ccc2O[C@@H](C)CCCCO[C@@H]1CN(C)C(=O)c1ccncc1 | inactive: 5.54%
16 | O=C(C[C@@H]1CC[C@H]2[C@@H](COC[C@H](O)CN2Cc2cccc(C(F)(F)F)c2)O1)NCc1ccccc1 | inactive: -10.3%
17 | COc1ccc(S(=O)(=O)Nc2cccc3c2O[C@H](CN(C)Cc2ccc(C(=O)Nc4ccccc4N)cc2)[C@H](C)CN([C@H](C)CO)C3=O)cc1 | active: -87.4%

— PubChem BioAssay AID1159554 (Broad Institute, 2015)
